A compilation of properties of binary mixtures (doi:10.1021/je300932n)
Some of these densities may be calculated back from excess volumes.

Assay: xn = mol fraction of the nth substance listed
Details: 101 kPa

CCCC[n+]1ccn(C)c1.N[C@@H](CC(=O)O)C(=O)[O-] + CO
mass density [kg/m3]
Details | x2 = 0.1001 | x2 = 0.1999 | x2 = 0.2999 | x2 = 0.398 | x2 = 0.5015 | x2 = 0.5949 | x2 = 0.6969 | x2 = 0.7957 | x2 = 0.8988
298.15 K | 1174 | 1173 | – | 1158 | – | 1145 | 1075 | – | –
303.15 K | 1170 | – | 1159 | 1153 | 1148 | – | – | 1029 | 966
308.15 K | 1163 | 1162 | 1156 | – | 1144 | 1137 | – | 1026 | 962
318.15 K | 1157 | – | 1149 | 1145 | – | 1130 | 1065 | – | –
